Read-outs that look alike come from different tables or passages of the source.
What was measured:
[1] = test system: Jurkat cells; assay: Anti-proliferation activity on Jurkat cells ([…] GLO); assay type: cell-based; conditions: Homo sapiens, 72 hours, read-out: IC50 (nM) Jurkat Cell
Description: (§1) Select compounds described herein were evaluated for structure-activity analyses. Exemplary results of the IC50 values of exemplary compound BSJ-01-175-1 on other CDK kinases from an Invitrogen biochemical assay are shown in Table 1. In vitro kinase assays were performed by Life Technologies in duplicate at an ATP concentration=Km for each kinase. The IC50 on Jurkat cell is from an anti-proliferaction assay; IC50 on CDK2, CDK7 and CDK9 is from a biochemical kinase inhibition assay from Life technology.
Assay of Anti-Proliferation Activity on Jurkat Cells
Jurkat cells were plated at 30,000 cells/well and treated with a titration of compounds indicated. Cells were allowed to grow for 72 hours. Cells were assayed using […] GLO (Promega) to determine cell viability by measuring the amount of ATP present, which is an indicator of cell metabolic activity. Results are graphedcalculated as relative as luminescence as compared to DMSOP=.cent values. Curves were generated using PRISM and an IC50 value was determined.

[2] = biological target: T1, CDK2/cyclin A (Homo sapiens, UniProt P24941); assay: Invitrogen/Life Technologies biochemical kinase inhibition assay
T1 construct: purchased Life Technologies (Invitrogen)
Description: as §1

[3] = biological target: T2, CDK7/cyclin H/MNAT1 (Homo sapiens, UniProt P50613); assay: as above
T2 construct: purchased Life Technologies (Invitrogen)
T2 sequence (P50613 whole entry): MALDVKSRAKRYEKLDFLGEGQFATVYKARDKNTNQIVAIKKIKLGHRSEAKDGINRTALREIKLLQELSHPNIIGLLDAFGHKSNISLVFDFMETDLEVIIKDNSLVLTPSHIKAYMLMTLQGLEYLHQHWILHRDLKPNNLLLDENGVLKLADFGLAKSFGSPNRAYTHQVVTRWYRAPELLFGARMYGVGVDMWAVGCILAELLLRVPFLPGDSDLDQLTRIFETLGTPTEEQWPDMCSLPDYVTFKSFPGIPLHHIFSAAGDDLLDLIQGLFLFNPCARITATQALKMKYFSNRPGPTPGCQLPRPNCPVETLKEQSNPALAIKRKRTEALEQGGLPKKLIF
T2 sequence (P51946 whole entry partner): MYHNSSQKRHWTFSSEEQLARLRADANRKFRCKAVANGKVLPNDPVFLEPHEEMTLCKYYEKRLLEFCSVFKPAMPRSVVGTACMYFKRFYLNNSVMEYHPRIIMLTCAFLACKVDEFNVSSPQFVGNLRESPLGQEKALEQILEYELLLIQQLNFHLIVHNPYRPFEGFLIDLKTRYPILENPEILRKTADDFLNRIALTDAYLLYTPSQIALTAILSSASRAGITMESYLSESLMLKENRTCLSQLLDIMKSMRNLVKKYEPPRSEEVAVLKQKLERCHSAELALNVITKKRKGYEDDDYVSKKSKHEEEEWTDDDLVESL
T2 sequence (P51948 whole entry partner): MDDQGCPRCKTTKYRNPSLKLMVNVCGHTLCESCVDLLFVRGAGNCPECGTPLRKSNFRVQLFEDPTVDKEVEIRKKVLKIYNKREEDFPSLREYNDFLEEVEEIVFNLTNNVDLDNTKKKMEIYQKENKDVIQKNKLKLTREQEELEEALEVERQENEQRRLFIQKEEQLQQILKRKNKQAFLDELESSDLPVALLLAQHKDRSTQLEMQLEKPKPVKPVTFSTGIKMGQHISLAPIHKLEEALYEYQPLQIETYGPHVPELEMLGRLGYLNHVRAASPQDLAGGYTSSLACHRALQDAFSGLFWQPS
Description: as §1

[4] = biological target: T3, CDK9/cyclin T1 (Homo sapiens, UniProt P50750); assay: as above
T3 construct: purchased Life Technologies (Invitrogen)
T3 sequence (P50750 whole entry): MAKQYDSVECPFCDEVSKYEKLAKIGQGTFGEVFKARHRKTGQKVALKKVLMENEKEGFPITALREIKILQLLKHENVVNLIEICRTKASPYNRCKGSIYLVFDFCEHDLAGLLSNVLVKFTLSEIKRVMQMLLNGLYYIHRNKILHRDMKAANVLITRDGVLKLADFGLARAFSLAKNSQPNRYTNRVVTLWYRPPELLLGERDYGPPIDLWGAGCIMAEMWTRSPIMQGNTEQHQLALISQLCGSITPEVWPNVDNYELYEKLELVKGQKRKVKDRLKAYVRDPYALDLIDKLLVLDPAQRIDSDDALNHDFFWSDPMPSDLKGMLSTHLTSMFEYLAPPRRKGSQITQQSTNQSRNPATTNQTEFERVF
T3 sequence (O60563 whole entry partner): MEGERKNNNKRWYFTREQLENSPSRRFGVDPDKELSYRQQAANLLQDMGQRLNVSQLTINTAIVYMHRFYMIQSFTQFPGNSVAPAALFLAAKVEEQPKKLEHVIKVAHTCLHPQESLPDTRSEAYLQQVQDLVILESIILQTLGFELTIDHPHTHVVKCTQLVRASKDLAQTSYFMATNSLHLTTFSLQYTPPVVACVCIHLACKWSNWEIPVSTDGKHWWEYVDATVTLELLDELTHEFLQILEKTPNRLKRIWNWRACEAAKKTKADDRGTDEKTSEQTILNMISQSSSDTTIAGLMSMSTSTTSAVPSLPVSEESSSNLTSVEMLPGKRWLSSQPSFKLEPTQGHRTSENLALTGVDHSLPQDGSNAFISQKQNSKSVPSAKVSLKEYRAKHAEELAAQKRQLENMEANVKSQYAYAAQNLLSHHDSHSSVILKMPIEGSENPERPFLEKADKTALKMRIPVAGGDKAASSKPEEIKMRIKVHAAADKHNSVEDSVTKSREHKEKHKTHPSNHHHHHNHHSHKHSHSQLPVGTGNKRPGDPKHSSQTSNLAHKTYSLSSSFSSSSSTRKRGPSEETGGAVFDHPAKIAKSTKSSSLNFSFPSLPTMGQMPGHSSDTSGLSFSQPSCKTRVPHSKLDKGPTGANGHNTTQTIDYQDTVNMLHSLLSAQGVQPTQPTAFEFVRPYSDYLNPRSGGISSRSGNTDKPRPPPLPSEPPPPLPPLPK
Description: as §1

[5] = test system: HAP1 WT cells; assay: Anti-proliferative activity, HAP1 WT cells (CellTiter-Glo); assay type: cell-based; conditions: Homo sapiens, 72 hrs
Description: (§2) Select compounds described herein were evaluated for anti-proliferative activity. HAP1 WT and CDK12 C1039S/CDK13 C1017S double mutants cells were seeded at a density of 12,000 cells/well in 96-well plates. Twenty-four hours later cells were then treated with compound BSJ-01-175-1 in a 10-pt dose escalation format from 1 nM to 10 μM or DMSO control for 72 hrs. After 72 hrs, cells were assayed using CellTiter-Glo Luminescent Cell Viability Assay (Promega) to determine cell viability by measuring the amount of ATP present in each sample cell population, which is an indicator of cell metabolic activity. Results are graphed as fraction of the DMSO control at 72 hrs. All data points were performed in biological triplicate.

[6] = test system: HAP1 CDK12 C1039S/CDK13 C1017S double mutants cells; assay: Anti-proliferative activity, HAP1 CDK12 C1039S/CDK13 C1017S double mutant cells (CellTiter-Glo); assay type: cell-based; conditions: Homo sapiens, HAP1; CDK12 C1039S/CDK13 C1017S double mutant, 72 hrs, CellTiter-Glo; read-out: HAP1 CDK12/13 mutant (IC50)
Description: as §2

[7] = ATP concentration = Km, duplicate, read-out: IC50 (nM) CDK2/Cyclin A
[8] = ATP concentration = Km, duplicate, read-out: IC50 (nM) CDK7/cyclin H/MNAT1
[9] = ATP concentration = Km, duplicate, read-out: IC50 (nM) CDK9/Cyclin T1

Row | SMILES | IC50 [1] | IC50 [2, 7] | IC50 [3, 8] | IC50 [4, 9] | IC50 ([2]; [ATP] Tested Km app (Table 1), read-out: Invitrogen Technology: IC50 (nM), CDK2/cyclin A) | IC50 ([3]; [ATP] Tested Km app (Table 1), read-out: Invitrogen Technology: IC50 (nM), CDK7/cyclin H/MNAT1) | IC50 ([4]; [ATP] Tested Km app (Table 1), read-out: Invitrogen Technology: IC50 (nM), CDK9/cyclin T1) | IC50 [5] | IC50 [6]
1 | C=CC(=O)Nc1ccc(O[C@@H]2CCC[C@@H](Nc3ncc(Cl)c(-c4c[nH]c5ccccc45)n3)C2)c(F)c1 [BSJ-03-161, N-(4-(((1R,3R)-3-((5-chloro-4-(1H-indol-3-yl)pyrimidin-2-yl)amino)cyclohexyl)oxy)-3-fluorophenyl)acrylamide] | 62.2 nM | > 10000 nM | 878 nM | 786 nM |  |  |  |  | 
2 | C=CC(=O)Nc1ccc(O[C@@H]2CCC[C@@H](Nc3ncc(Cl)c(-c4c[nH]c5ccccc45)n3)C2)cc1 [BSJ-01-033, N-(4-((1R,3R)-3-(5-chloro-4-(1H-indol-3-yl)pyrimidin-2-ylamino)cyclohexyloxy)phenyl)acrylamide] | 140 nM | > 10000 nM | 587 nM | 585 nM |  |  |  |  | 
3 | CN(C)C/C=C/C(=O)Nc1ccc(O[C@@H]2CCC[C@@H](Nc3ncc(Cl)c(-c4c[nH]c5ccccc45)n3)C2)c(F)c1 [BSJ-03-162, (E)-N-(4-(((1R,3R)-3-((5-chloro-4-(1H-indol-3-yl)pyrimidin-2-yl)amino)cyclohexyl)oxy)-3-fluorophenyl)-4-(dimethylamino)but-2-enamide] | 154 nM | 3570 nM |  | 286 nM |  |  |  |  | 
4 | CN(C)C/C=C/C(=O)Nc1ccc(O[C@@H]2CCC[C@@H](Nc3ncc(Cl)c(-c4c[nH]c5ccccc45)n3)C2)cc1 [BSJ-01-175, (E)-N-(4-((1R,3R)-3-(5-chloro-4-(1H-indol-3-yl)pyrimidin-2-ylamino)cyclohexyloxy)phenyl)-4-(dimethylamino)but-2-enamide] | 161 nM | 4510 nM | 121 nM | 367 nM | 4510 nM | 121 nM | 367 nM | 313 nM | 670 nM
5 | C=CC(=O)Nc1ccc(N2CCC[C@@H](Nc3ncc(Cl)c(-c4c[nH]c5ccccc45)n3)C2)cc1 [BSJ-02-139, (R)—N-(4-(3-((5-chloro-4-(1H-indol-3-yl)pyrimidin-2-yl)amino)piperidin-1-yl)phenyl)acrylamide] |  | 3550 nM | 162 nM | 171 nM |  |  |  |  | 
6 | C=CC(=O)Nc1cc(F)c(N2CCC[C@@H](Nc3ncc(Cl)c(-c4c[nH]c5ccccc45)n3)C2)cc1C [BSJ-03-005, (R)—N-(4-(3-((5-chloro-4-(1H-indol-3-yl)pyrimidin-2-yl)amino)piperidin-1-yl)-5-fluoro-2-methylphenyl)acrylamide] | 132 nM | 266 nM | 118 nM | 230 nM |  |  |  |  | 
7 | C=CC(=O)Nc1cc(OC)c(N2CCC[C@@H](Nc3ncc(Cl)c(-c4c[nH]c5ccccc45)n3)C2)cc1C [BSJ-03-014, (R)—N-(4-(3-((5-chloro-4-(1H-indol-3-yl)pyrimidin-2-yl)amino)piperidin-1-yl)-5-methoxy-2-methylphenyl)acrylamide] | 344 nM | 3360 nM | 403 nM | 522 nM |  |  |  |  | 
